Results as given in PubChem BioAssay AID1671188 (National Center for Advancing Translational Sciences (NCATS), 2021).
Hit rate of the full screen: of about 100,000 compounds, about 250 (0.25%) were called active. Inconclusive results, whose numbers are uncertain, are shown with a selection of clear calls. Calls come from the whole dose curve; as a rule, active = well fitted inhibition curve with a large enough effect; inconclusive = small, poorly fitted or top-dose-only effect; inactive = flat fitted curve, though single readings scatter. Potencies of inconclusive entries are left out as doubtful fits.
% is set by controls: 0 for no effect and ±100 for the full control effect; potency is the fitted concentration of half-maximal effect; tags give direction and shape of the fitted curve.
Note: nearly all actives have a fitted effect of over 60% in size.

These molecules were tested against Alanine aminotransferase 2 (Homo sapiens) (UniProt Q8TD30) (assay: Primary qHTS assay for inhibitors of Glutamate pyruvate transaminase 2 (GPT2)). Conditions: Recombinant GPT2, coupled pyruvate oxidase/HRP Amplex Red fluorescence; activity change, negative = inhibition: at 57.7 µM (top of the series) unless noted; series mostly up to 57.7 µM.
Sequence of UniProt Q8TD30 (Q8TD30 whole entry, looked up): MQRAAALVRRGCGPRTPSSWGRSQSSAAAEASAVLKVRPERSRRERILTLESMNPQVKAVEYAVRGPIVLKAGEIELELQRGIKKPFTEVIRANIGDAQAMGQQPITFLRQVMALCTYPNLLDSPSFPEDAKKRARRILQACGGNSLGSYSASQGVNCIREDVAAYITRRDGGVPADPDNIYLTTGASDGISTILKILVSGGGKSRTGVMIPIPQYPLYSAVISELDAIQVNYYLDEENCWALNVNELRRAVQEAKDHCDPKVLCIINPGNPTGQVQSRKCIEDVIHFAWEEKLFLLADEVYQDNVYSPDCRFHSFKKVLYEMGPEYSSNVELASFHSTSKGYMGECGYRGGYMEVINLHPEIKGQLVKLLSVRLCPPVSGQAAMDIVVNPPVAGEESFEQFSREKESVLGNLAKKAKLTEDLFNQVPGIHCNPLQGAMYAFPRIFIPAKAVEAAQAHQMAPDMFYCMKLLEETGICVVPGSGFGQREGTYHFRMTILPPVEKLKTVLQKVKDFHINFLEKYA
Procedure, shortened: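 Fluorescence read-out: pyruvate from GPT2 turnover coupled to pyruvate oxidase, HRP and Amplex Red (0.2mM ThPP, 0.2U/mL PO and HRP, 50uM Amplex final). Substrates 250uM a-KG, 2mM L-alanine; enzyme 10ng/uL; 30 min RT.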
With `CC1(C)[C@H](Cc2cc(CN3CCOCC3)on2)C[C@@H]1N(Cc1ccco1)Cc1ccco1` the “outcome” value was “inactive”. For `O=C(c1ccc2c(c1)OCO2)N1CCC(N2CCOC2=O)CC1`, the Potency was inconclusive [inhibitor, full curve, poor fit]. For `Cc1nn(C)c(C)c1C(=O)N1CC(n2cc(COc3ccc(F)cc3)nn2)C1`, the Potency was inconclusive [inhibitor, single point]. With `COc1ccc(-c2nnc3ccc(N4CCC(c5ccccc5)CC4)nn23)nc1` the “activity change, negative = inhibition” value was inactive: -2.26% [at 88.5 µM]. In the case of `COc1ccc(-c2cc(N3CCCC(NC(=O)c4ccc5[nH]ccc5c4)C3)n[nH]2)cc1` (stereo not drawn), the Potency is reported as inconclusive [inhibitor, partial curve]. With `COc1cncc([C@@H](NC(=O)c2ccc3c(c2)OCO3)C2CC(O)C2)c1` (stereo partly drawn) the Potency was inconclusive [inhibitor, single point]. With `CCOc1cccc(CNC(=O)C2Cn3cccc3C(=O)N2Cc2ccccc2)c1` (stereo not drawn) the “outcome” value was “inactive”. In the case of `COc1ccc(NC(=O)N2CCC3(CC2)CN(c2ccccc2)C3=O)cc1OC`, the Potency is reported as inconclusive [inhibitor, single point]. In the case of `CCOc1ccc(NC(=O)CCNc2c(C)nc3cnccn23)cc1`, the Potency is reported as inconclusive [inhibitor, single point]. `O=C(NC1CC(c2cc(=O)[nH]cn2)C1)c1ncc(F)cc1F` (stereo not drawn) was tested, and the Potency was inconclusive [inhibitor, single point]. `C=C[C@@]1(C)C=C2C(=O)C(O)=C3[C@](C)(C(=O)O)CC[C@@H]4C[C@]34[C@]2(O)C(=O)C1` was tested, and the Potency was inconclusive [inhibitor, single point]. With `CC(C)(Oc1nn(CCOc2ccccc2)c2ccccc12)C(=O)NCc1ccncc1` the Potency was inconclusive [inhibitor, single point]. For `COCCOCC(=O)N1CCCC(c2nn(C)c(=O)n2-c2ccccc2)C1` (stereo not drawn), the “outcome” value was “inactive”. With `Cc1cc(Cn2cc3c4c(cccc42)[C@H](CC(C)C)N[C@H](C(=O)NCc2cncn2C)C3)no1` the Potency was inconclusive [inhibitor, single point]. With `CC(C)N1CC2CCC(C1)N2Cc1ccc(-c2ccccc2)cc1` the Potency was inconclusive [inhibitor, partial curve, poor fit]. For `O=C(NCc1ccc(F)cc1)C1CCN(C(=O)c2ccc(-c3cncnc3)cc2)CC1`, the “activity change, negative = inhibition” value was inactive: 3.46%. In the case of `O=C(c1ccc(F)cc1)N1CCC2(CC1)OCC(C(=O)N1CCCC1)N2C(=O)c1cccc(F)c1` (stereo not drawn), the Potency is reported as inconclusive [inhibitor, single point]. For `O=C1NCc2ccccc2CC12CCCN(Cc1ccc(O)cc1O)C2` (stereo not drawn), the “outcome” value was “inactive”.
